The whole screen tested about 310,000 compounds, of which about 14,000 (4.5%) showed an effect of 50% or more. The effect is printed as a negative number. The list shows a part of the results.
target: human ether-à-go-go-related gene (hERG) potassium channel (human, UniProt Q12809); assay: primary screen, population patch clamp on CHO cells stably expressing hERG
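Also: peak tail current of the secondary pulse compared with the same well before compound.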

Sequence of human ether-à-go-go-related gene (hERG) potassium channel (Q12809 whole entry, looked up): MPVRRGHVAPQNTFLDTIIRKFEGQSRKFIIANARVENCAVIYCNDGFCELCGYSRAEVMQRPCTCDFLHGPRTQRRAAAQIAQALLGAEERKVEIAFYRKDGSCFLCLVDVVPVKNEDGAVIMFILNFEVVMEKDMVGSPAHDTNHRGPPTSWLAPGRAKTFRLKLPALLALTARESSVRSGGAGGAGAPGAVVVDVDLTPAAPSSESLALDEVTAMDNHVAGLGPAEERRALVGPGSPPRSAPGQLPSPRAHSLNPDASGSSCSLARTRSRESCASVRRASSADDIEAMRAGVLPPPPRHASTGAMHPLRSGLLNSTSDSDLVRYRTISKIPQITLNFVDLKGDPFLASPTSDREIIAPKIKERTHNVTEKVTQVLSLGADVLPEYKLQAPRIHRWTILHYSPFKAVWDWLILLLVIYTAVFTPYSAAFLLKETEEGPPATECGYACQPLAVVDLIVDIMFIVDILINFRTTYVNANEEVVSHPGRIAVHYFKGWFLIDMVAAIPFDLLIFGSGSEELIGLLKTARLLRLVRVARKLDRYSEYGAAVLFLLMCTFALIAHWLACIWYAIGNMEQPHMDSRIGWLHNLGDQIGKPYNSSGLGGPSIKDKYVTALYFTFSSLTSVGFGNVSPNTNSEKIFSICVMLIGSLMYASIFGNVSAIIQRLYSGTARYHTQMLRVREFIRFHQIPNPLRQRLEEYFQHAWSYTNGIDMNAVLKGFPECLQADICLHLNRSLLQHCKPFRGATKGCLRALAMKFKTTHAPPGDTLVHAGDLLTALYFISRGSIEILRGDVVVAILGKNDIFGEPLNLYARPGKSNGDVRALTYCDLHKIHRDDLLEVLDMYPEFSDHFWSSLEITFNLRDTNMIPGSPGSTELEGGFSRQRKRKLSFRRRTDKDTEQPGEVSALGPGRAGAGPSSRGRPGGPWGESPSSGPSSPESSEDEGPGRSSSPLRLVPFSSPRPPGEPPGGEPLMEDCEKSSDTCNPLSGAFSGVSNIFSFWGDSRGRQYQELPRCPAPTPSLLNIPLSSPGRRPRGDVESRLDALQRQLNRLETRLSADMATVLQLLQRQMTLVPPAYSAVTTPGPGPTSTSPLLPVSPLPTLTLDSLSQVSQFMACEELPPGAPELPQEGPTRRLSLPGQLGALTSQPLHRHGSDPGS

| Structure (SMILES) | hERG current change (%, negative = inhibition) at 10uM |
| --- | --- |
| CCCCCOC(=O)C1[C@H]2C(=O)N(CCCOC)C[C@]23C=C[C@H]1O3 (some centres unmarked) | -2.67% |
| CS(=O)(=O)N1Cc2ccccc2CC1C(=O)OCC(=O)Nc1ccc2ccccc2c1 (centres unmarked) | 7.36% |
| CCCn1c(C(C)NC(C)=O)nc2ccccc21 (centres unmarked) | 8.97% |
| C[C@H](NC(=O)c1ccccc1)C(=O)OCC(=O)c1c[nH]c2ccccc12 | -27.2% |
| O=C(c1[nH]ncc1-c1ccc(Cl)cc1)C1CO1 (centres unmarked) | 8.61% |
| CC12CCC(C(=O)NC3CCCC3)(CC1=O)C2(C)C (centres unmarked) | 8.75% |
| O=C1C2C3c4ccccc4C(c4ccccc43)C2C(=O)N1Cc1ccco1 (centres unmarked) | 5.12% |
| Cn1c(=O)n(C)c2cc([N+](=O)[O-])c(N3CCN(S(=O)(=O)c4ccccc4)CC3)cc21 | -8.67% |
| O=C(CNC(=O)OCc1ccccc1)NCC(=O)Nc1ccc(Br)cc1C(=O)c1ccccc1 | -56% |
| O=C(CCC(=O)N(CC(=O)NC1CCCC1)c1ccccc1F)Nc1nccs1 | -14.3% |
| Cc1ccc(C2CC(=O)C=C(NCC(C)C)C2)cc1 (centres unmarked) | -1.28% |
| NS(=O)(=O)c1ccc(CCNC(=O)CNC(=O)c2ccc(Br)o2)cc1 | 2.72% |
| CCN(CC)C(=O)CSc1nnc(COc2ccc(OC)cc2)n1N | 2.44% |
| O=C(Nc1ccccc1)c1ccc(OC(=O)c2ccccc2)cc1 | 16.3% |
| CC1CCN(CC(=O)Nc2ccc(S(=O)(=O)N3CCC(C)CC3)cc2)CC1.Cl | -42.8% |
| CCCN(CC(=O)Nc1ccccc1C)C(=O)c1ccc(S(=O)(=O)N2CCCC2)cc1 | -21.9% |
| COc1ccc(S(=O)(=O)N2CCN(Cc3c[nH]c4ccccc34)CC2)cc1 | -24.9% |
| CCOC(=O)C/C(C)=N/NC(=O)CN(c1ccc(Br)cc1)S(=O)(=O)c1ccccc1 | -0.597% |
| CCS(=O)(=O)n1nc(-c2ccc(OC)cc2)nc1SC | 0.538% |
| O=C(CSc1ncn(-c2ccccc2)n1)Nc1ccc(Br)cn1 | -15.1% |
| CCc1nc(Nc2ccc3nccnc3c2)c2oc3ccccc3c2n1.Cl | 17.5% |
| CC(OC(=O)c1ccc(-n2cnnn2)cc1)C(=O)NCc1ccccc1 (centres unmarked) | -49.3% |
| COc1ccccc1NC(=O)/C=C/C(=O)O | 8.06% |

| Structure (SMILES) | hERG current change (%, negative = inhibition) at 10uM |
| --- | --- |
| Cc1cccc(OCc2nnc(SCC(=O)N3CCN(C(=O)c4ccco4)CC3)n2C)c1C | -34.2% |
| Cc1ccc(C2c3[nH]c4ccccc4c3C[C@H]3C(=O)N(c4ccccc4C(=O)N4CCC[C@H]4C(=O)O)C(=O)N23)cc1 (some centres unmarked) | 11.4% |
| CCOC(=O)[C@H]1[C@H]2COc3ccc(OC)cc3[C@@H]2N2C(=O)CN(Cc3ccc(C)cc3)C(=O)[C@@]12C | -19.3% |
| O=C(O)C1C(c2ccccc2)C(C(=O)Oc2ccccc2)C1c1ccccc1 (centres unmarked) | 5.02% |
| O=C(C1CCC(CNS(=O)(=O)c2cccc3nsnc23)CC1)N1CCN(c2ccccn2)CC1 (centres unmarked) | -53.9% |
| CSc1ccccc1C(=O)C1CCCN(S(=O)(=O)N(C)C)C1 (centres unmarked) | -20.4% |
| C/C=C(\C)CN1CCCC(CO)(Cc2ccccc2)C1 (centres unmarked) | 10.4% |
| COc1cc(/C=C/C(=O)OCC(=O)NC(=O)NC(C)(C)C)cc(OC)c1OC | 13.4% |
| Nc1cc(=O)[nH]c(N2CCN(c3ccccc3)CC2)n1 | 24.2% |
| CCCCOc1ccc(NC(=O)c2cnc(C)cn2)cc1 | -6.25% |
| O=C(NC1CCCCC1)C(c1ccccn1)N(C(=O)c1csnn1)c1ccccc1 (centres unmarked) | 1.6% |
| Cc1cc(C)cc(NC(=O)CSc2cc(C(=O)c3nccn3C)c3ccccc3n2)c1 | -3.45% |
| COc1cccc(CNC(=O)CCC2CCCN(C(=O)c3ccoc3C)C2)c1 (centres unmarked) | 5.6% |
| N#C/C(=C/c1ccco1)c1nc2ccccc2s1 | 9.32% |
| CC(=O)Nc1ccc(Br)c(Cl)c1 | 10.9% |
| CCCCOc1ccc(C(=O)Nc2cccc(C)n2)cc1 | -12.2% |
| O=C(Nc1nnc(-c2ccncc2)o1)c1ccc2ccccc2c1 | -3.08% |
| CCCCCOC(=O)NCCOC(=O)Nc1ccc(C(=O)OCC)cc1 | 14% |
| CS(=O)(=O)c1ccc(Cl)c(NC(=O)c2ccc3ccccc3c2)c1 | -7.15% |
| CCC(C)Nc1nc(-c2ccccn2)nc2ccccc12 (centres unmarked) | -50.2% |
| Nc1nnc(CC(=O)N/N=C/c2ccc(-c3ccc(F)cc3)o2)s1 | 4.34% |
| CCN(CC)S(=O)(=O)c1ccc(C(=O)NC2=NCCS2)cc1 | 14.7% |
| CC(C)c1ccc(/C=C2\Oc3c(ccc(O)c3CN3CCN(C)CC3)C2=O)cc1 | -5.69% |

| Structure (SMILES) | hERG current change (%, negative = inhibition) at 10uM |
| --- | --- |
| O=C(c1ccc2ccccc2c1)N1CCN(S(=O)(=O)/C=C/c2ccccc2)CC1 | -31.9% |
| CCN(CC)c1ccc(NC(=O)c2ccc(Br)o2)c(C)c1 | -1.8% |
| CC1=C2C(CCS2(=O)=O)CC2(C1)C(=O)OC(C)(C)OC2=O (centres unmarked) | 4.47% |
| Cc1ccc(S(=O)(=O)NC(Cc2ccccc2)C(=O)O)cc1 (centres unmarked) | -8.33% |
| O=C(NC(=S)Nc1ccc2c(c1)OCCO2)c1ccc(F)cc1Cl | 15.6% |
| CCOCCCn1c(SC(C)C(=O)NCC2CCCO2)nc2sc(C)c(C)c2c1=O (centres unmarked) | 0.863% |
| C/C(NC1CCCC1)=C(/C#N)C(N)=O | 4.5% |
| C/C(=N\Nc1nc(C(C)(C)C)cs1)c1ccccc1 | 16.4% |
| COc1ccc(CCNC(=O)Cn2c(=O)oc3cc(Cl)ccc32)cc1OC | -2.54% |
| O=C(Cn1cnc2c(cnn2-c2ccc(F)cc2)c1=O)NCC1CCCO1 (centres unmarked) | -13.1% |
| COc1cc(CCC(=O)OCC(=O)Nc2c(F)cccc2F)cc(OC)c1OC | 5.38% |
| COc1ccc(N2C(=O)C3CCCN3C2c2ccccc2)cc1Cl (centres unmarked) | 7.28% |
| CCOc1cc(/C=N/O)ccc1OCc1ccc([N+](=O)[O-])cc1 | -13.6% |
| CC(=O)N1CCN(CC(=O)Nc2cccc(S(=O)(=O)N3CCCCCC3)c2)CC1 | -23.3% |
| COc1ccc(Br)cc1/C=C/C(=O)Nc1ccc(C)cc1 | 21.4% |
| COC(=O)NC1c2ccccc2Oc2ccccc21 | 41.4% |
| Cc1ccc(C)c(-n2c(C)nc3ccccc3c2=O)c1 | 14.3% |
| COc1ccc(OC)c(S(=O)(=O)NCCOC23CC4CC(CC(C4)C2)C3)c1 | -18.8% |
| Cc1c(C(=O)NCC2CCCO2)sc2nc(-c3ccccc3)cn12 (centres unmarked) | -37.6% |
| O=C(Cn1c(=O)cnc2ccccc21)Nc1ccccc1N1CCOCC1 | -4.54% |
| Cc1c(OCC(=O)C(C)(C)C)ccc2c(-c3ccccc3)cc(=O)oc12 | -12.5% |
| CNC(=O)CN1C(=O)NC2(CCc3ccccc3C2)C1=O (centres unmarked) | 21.8% |
| c1ccc(C2=Nn3c(nnc3-c3ccccn3)SC2)cc1 | -11.6% |

| Structure (SMILES) | hERG current change (%, negative = inhibition) at 10uM |
| --- | --- |
| CCOc1cccc(CNCc2ccncc2)c1 | -3.58% |
| COC(=O)c1ccc(NC(=O)C2C3CCC(C3)C2C(=O)O)cc1 (centres unmarked) | -10.7% |
| COc1ccc(C(c2sc3nc(C)nn3c2O)N2CC(C)OC(C)C2)cc1OC (centres unmarked) | -7.01% |
| Cc1ccc(NC(=O)COC(=O)CN2C(=O)c3ccccc3C2=O)cc1S(=O)(=O)N(C)C | -17.2% |
| COc1cccc(CN=c2c([N+](=O)[O-])nn(-c3ccccc3C)n2O)c1 | 8.91% |
| COc1ccccc1C(=O)Nc1ccc2[nH]ncc2c1 | 5.94% |
| CCn1c(-c2cc(-c3ccc(C)cc3)nc3ccccc23)n[nH]c1=S | 11.4% |
| O=C(c1ccc(CS(=O)(=O)c2c(Cl)cccc2Cl)o1)N1CCN(c2ccccn2)CC1 | -39.6% |
| Cc1cc(C)n(C(=O)CNC(=O)COc2ccccc2)n1 | 11.5% |
| O=C(NCc1cccnc1)NC(=O)c1ccc(Cl)cc1 | 3.09% |
| Cn1/c(=N\NC(=O)c2ccccc2Cl)sc2ccccc21 | 6.82% |
| CCOC(=O)c1oc2ccccc2c1NC(=O)Cc1cccs1 | 0.503% |
| CCC(C)c1ccc(S(=O)(=O)N2CC(=O)Nc3ccccc32)cc1 (centres unmarked) | -11.2% |
| COc1ccccc1N1CCN(S(=O)(=O)c2c(C)[nH]c(=O)[nH]c2=O)CC1 | -7.32% |
| Cc1ccc(C)c(OCCCN2CCCC2)c1.O=C(O)C(=O)O | -54.9% |
| CC12CN(NC(=O)c3ccc(Cl)cc3)C3(C#N)CC1CCC23C (centres unmarked) | 19% |
| COc1ccccc1OCCCC(=O)NCc1ccco1 | 7.62% |
| CC(C)c1nnc(NC(=O)CCC(=O)N2CCN(c3cccc(Cl)c3)CC2)s1 | -5.57% |
| Cc1ccnc(NC(=O)c2ccc(Cl)c(NC(=O)c3ccccc3C)c2)c1 | 10.2% |
| COC(=O)c1ccccc1NC(=O)CCCn1nc(C)c2c(C)n(-c3ccccc3)nc2c1=O | -14.7% |

Reference: publication PMC4336329 (PLoS ONE, 2015)
